# In all, about 33,000 sequences were measured (“E-score (-0.5 to 0.5)”: median about -0.021, highest 2% from about 0.32 on). Some of the results follow.
# Target: T1, Zap1 (UniProt P47043)
# T1 sequence: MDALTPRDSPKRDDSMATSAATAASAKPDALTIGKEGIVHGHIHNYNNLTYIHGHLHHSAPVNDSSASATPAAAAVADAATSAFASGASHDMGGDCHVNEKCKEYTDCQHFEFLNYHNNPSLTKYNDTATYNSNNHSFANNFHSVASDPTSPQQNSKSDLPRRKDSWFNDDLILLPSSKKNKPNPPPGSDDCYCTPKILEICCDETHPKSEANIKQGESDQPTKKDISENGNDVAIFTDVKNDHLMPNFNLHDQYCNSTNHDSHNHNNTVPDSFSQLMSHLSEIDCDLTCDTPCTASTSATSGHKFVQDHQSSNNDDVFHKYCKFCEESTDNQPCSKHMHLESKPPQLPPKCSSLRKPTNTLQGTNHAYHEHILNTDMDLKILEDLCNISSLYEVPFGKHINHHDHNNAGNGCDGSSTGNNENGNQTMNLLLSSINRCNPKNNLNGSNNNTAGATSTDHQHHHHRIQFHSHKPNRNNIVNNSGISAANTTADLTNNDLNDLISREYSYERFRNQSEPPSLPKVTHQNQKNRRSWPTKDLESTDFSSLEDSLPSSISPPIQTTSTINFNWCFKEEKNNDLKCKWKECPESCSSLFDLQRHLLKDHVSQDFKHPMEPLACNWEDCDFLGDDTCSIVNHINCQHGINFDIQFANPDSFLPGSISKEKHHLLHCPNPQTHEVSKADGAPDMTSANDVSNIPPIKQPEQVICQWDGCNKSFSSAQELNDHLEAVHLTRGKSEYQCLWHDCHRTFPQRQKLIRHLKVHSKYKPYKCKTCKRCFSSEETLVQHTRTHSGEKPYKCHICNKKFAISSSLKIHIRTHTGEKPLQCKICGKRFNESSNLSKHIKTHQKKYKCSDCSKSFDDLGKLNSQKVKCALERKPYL
# Experiment: PBM E-score (8-mer binding enrichment) (E-score (-0.5 to 0.5)); higher = stronger / more preferred TF binding; most listed sequences are background and not binding sites
# Conditions: protein concentration: 200 nM; construct: GST-full length
# How it was run: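 Full-length yeast transcription factors or their DNA-binding domains, GST-tagged and expressed with PURExpress, were applied at about 100-200 nM to universal all-10-mer Agilent arrays. These arrays had been made double-stranded by primer extension on fresh or once-stripped slides. Detection used fluorescent anti-GST, normalisation used masliner, and E-scores for ungapped eight-base words pooled with reverse complements came from the Universal PBM Analysis Suite.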
row,Sequence,PBM E-score
1,AAACGAAC,0.129
2,TACGAGCA,-0.262
3,CAACACCA,0.0784
4,GGTGATGA,0.338
5,CTTCATTA,0.128
6,AGCTGACG,-0.196
7,CGACATGA,-0.13
8,TAGCTTCA,-0.0845
9,GGACCAAC,0.0453
10,CGAGGTAC,0.187
11,AAATGGGC,-0.113
12,CTACTTCC,0.0316
13,TAGTGATA,0.112
14,ATATTCTA,0.0377
15,CATATGTA,0.169
16,ACGCTACG,-0.129
17,GACGTAGC,-0.216
18,CTGTCCTC,-0.192
19,CGTAAACA,0.124
20,GTATGTGA,0.0632
21,ATAGAGCA,0.0499
22,GTCAGGTA,0.109
23,TCCCTTCA,-0.0499
24,ACACCCAG,-0.12
25,CTATCCAA,-0.164

row,Sequence,PBM E-score
1,AATAAGGG,0.0215
2,AACATCGG,-0.124
3,CACATCGG,-0.0476
4,AGCATCTA,-0.248
5,GGCACCTA,-0.00828
6,AGAGAATA,-0.01
7,AGTAATTC,0.084
8,AGTCGAGC,-0.254
9,AAACATTG,-0.00173
10,TGTATACA,0.131
11,GCAGCCTA,-0.218
12,GTGCATTA,0.135
13,ATTTAAGC,0.159
14,CGAATCCA,-0.0431
15,TAGTAACA,0.0724
16,AAATTGTA,0.0146
17,ACGAGTTA,0.0684
18,CCCCAAGA,0.0838
19,GCAGCTTA,-0.106
20,CGCTATTC,-0.0217
21,CAGCCGTC,-0.125
22,AATGCCTC,-0.25
23,ATTGTATG,0.0229
24,TAATTGCA,0.12
25,ATACCGCC,-0.117

row,Sequence,PBM E-score
1,ATCTGGCC,-0.0975
2,GTCTTGTA,-0.0425
3,GTCTAGAC,-0.295
4,CCTCCCAC,-0.229
5,TAATGGTA,0.309
6,CTTATGCA,0.0862
7,GTAAGTAC,-0.0293
8,CTTCGGCA,-0.0521
9,AGGTTCTC,0.299
10,AGATTACC,0.27
11,ACCAAATC,0.0501
12,AGTGAGGC,-0.0666
13,CCACCCAC,0.263
14,GCCTGCTA,-0.213
15,AGCACGAA,-0.0881
16,GACATATA,0.0111
17,TCAAACGA,0.0515
18,ATTCATTC,0.13
19,CATTTTAC,0.213
20,AGGCCCCT,0.0315
21,CACGGACA,0.0578
22,TACTGCGA,-0.00442
23,GAGACTTA,-0.174
24,AGCCATAA,-0.047
25,AGACATCC,-0.139

row,Sequence,PBM E-score
1,AAGCGTAA,-0.126
2,CTCCATGA,0.0162
3,AGTCACGA,0.0207
4,CGTTACTA,0.0809
5,CTCTCACA,0.135
6,CCGGAGGC,-0.179
7,GTGTGCCA,-0.11
8,AAGCGCTC,-0.28
9,CTGTGAGA,0.135
10,ATTCCTAC,-0.0543
11,AAGTCAAT,-0.0873
12,ATTATCCG,0.0395
13,AGCGCTAT,-0.0584
14,AAGACCGA,0.164
15,CGTTCTGA,0.0654
16,GCAGTTCA,0.0294
17,CAGGTTTC,0.198
18,AGAACTCG,-0.124
19,CCGGGTTA,0.388
20,ACATACCA,-0.0785
21,CTCATTCC,-0.186
22,GGTCGGGA,0.149
23,AACGTTAT,0.00465
24,ATTGCGGG,0.11
25,ACGTAACT,0.0456

row,Sequence,PBM E-score
1,CCGGATCG,-0.0871
2,GATGACGC,-0.246
3,AGTATTTG,0.00918
4,AGAGCAAC,-0.0037
5,CGCATGGC,-0.059
6,GAAAGACA,-0.126
7,CGGCAATC,-0.102
8,ATATGAAG,0.0132
9,ATGTGCAA,0.136
10,CACTAGCC,0.0318
11,CACAAAAA,0.273
12,ATGTCGCC,-0.345
13,AAAGTTAG,0.104
14,CATACCAG,0.0326
15,GCTGGTTA,0.329
16,AGGAAATG,0.0675
17,TAAGTAAA,0.0554
18,GCGCCCCA,-0.174
19,AACAGCTC,-0.13
20,AACCGCCT,0.123
21,AGCAGGTG,0.053
22,ACGATTAT,-0.0828
23,ACAGTTTG,-0.102
24,CAGTTGCG,-0.00872
25,AAGCTAAA,-0.0715

row,Sequence,PBM E-score
1,AGCGGGCA,-0.257
2,ATTTTGAG,0.224
3,CGGTCACC,0.276
4,ACTGTACG,-0.127
5,AGCCTATC,-0.258
6,CAAGCCAG,-0.11
7,CAAATGGA,-0.084
8,CGAGCCAG,-0.265
9,CCGTACAA,0.0893
10,AATCCACC,-0.143
11,ATAACGTG,0.0108
12,ACACTGGT,-0.0246
13,CGTGCTCC,-0.168
14,GCTCCATA,-0.0964
15,GGGAGTCA,-0.172
16,ATTATCGG,0.034
17,ACCCCGGG,0.34
18,GACAGAAC,0.032
19,ATAACCAT,0.457
20,CTGCAAGA,-0.16
21,ACCCCATG,0.255
22,TTCCGGAA,-0.0117
23,CAAAGAAA,0.032
24,GACTGACA,-0.171
25,AAATCCGT,-0.00373

row,Sequence,PBM E-score
1,GACTCTCC,-0.236
2,AAGCTACT,-0.0501
3,AGAGTCCA,-0.0365
4,ATTCGGTG,0.0803
5,CTACCGGC,-0.0647
6,ACCTTGCG,0.284
7,CCGTTGCA,-0.114
8,GTTATGAA,0.266
9,CAATTGAA,-0.0576
10,ACGTGCAG,-0.0296
11,ACCTACCG,0.0943
12,CGCTGAAG,-0.123
13,AACTCCTT,-0.105
14,GAGTCATC,-0.203
15,CTGGATGC,-0.0886
16,CTCTTTGA,0.0565
17,ACCTCGCG,0.109
18,GCCACCCA,-0.0281
19,ATCAATTG,0.106
20,ATGAAGGA,0.076
21,AAGAATCG,0.0553
22,GACAACGC,-0.131

# Source: the supplement of paper PMC3334620
